# This is one part of the list. No stated cut-off is given here; in the data, active = 3.2 or more and inactive = the rest. Most of these values are background signal.
# Molecular target: SHP2 C-SH2 domain E139D
# Assay: enrichment score (SH2-bound / input frequency) (ratio); bacterial display of known human phosphotyrosine sites (pTyr-Var adds point mutants) read by sequencing; higher = stronger binding; tyrosines were phosphorylated by kinases first
# Settings: peptide library: pTyr-Var
# 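Further: displayed peptides selected on beads carrying the immobilized SH2 domain, with library peptides lacking any tyrosine serving as negative controls.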
row,Binder,enrichment score
1,LDVGEYCVPRG [BEX1_Y43_A40V],inactive: 0.725
2,HKNNNYEPSLF [BRCA2_Y57_N60S],inactive: 0.902
3,GHPYAYDWISI [BEST1_Y227_L224P],inactive: 1.2
4,SRIWVYNHFRW [BRCA2_Y2621_YF],inactive: 3.11
5,GHLYAYDWIRI [BEST1_Y227_S231R],inactive: 2.79
6,RTLIRYAKLGN [BEST1_Y131_N133K],inactive: 0.837
7,FQLPFYNMVPS [BMPR1A_Y458_YF],inactive: 1.34
8,ELANLYHHVWM [BICD2_Y538_C542W],inactive: 1.7
9,RKLVDYDSAQH [BIN1_Y150_R154Q],inactive: 0.546
10,GHLFACDWISI [BEST1_Y227_Y227C_YF],inactive: 1.96
11,GIVEEYQLPYY [BMPR1A_Y453],inactive: 0.987
12,WVYNHYRCIIW [BRCA2_Y2624_W2626C],inactive: 2.14
13,SRIWVYNHYRC [BRCA2_Y2621_W2626C],inactive: 1.64
14,WVYNHYRWIIW [BRCA2_Y2624],inactive: 2.91
15,KKFFSYAWPFF [BRDT_Y291_H288Y_YF],inactive: 2.38
16,KRFRIYHLATS [BRCA2_Y3009_YF],inactive: 1.06
17,PSDPSYEDMRE [BMPR1A_Y467],inactive: 0.477
18,SARHHYESLQT [BIN1_Y157],inactive: 1.28
19,NEKNIYGVPLM [BMPR2_Y247_R248G],inactive: 0.894

# Molecular target: SHP2 C-SH2 domain wild-type
# Assay: as above
# Settings: peptide library: pTyr-Var
row,Binder,enrichment score
1,LDVGEYCVPRG [BEX1_Y43_A40V],inactive: 0.926
2,HKNNNYEPSLF [BRCA2_Y57_N60S],inactive: 0.698
3,GHPYAYDWISI [BEST1_Y227_L224P],inactive: 1.06
4,SRIWVYNHFRW [BRCA2_Y2621_YF],inactive: 3.02
5,GHLYAYDWIRI [BEST1_Y227_S231R],inactive: 2.41
6,RTLIRYAKLGN [BEST1_Y131_N133K],inactive: 0.55
7,FQLPFYNMVPS [BMPR1A_Y458_YF],inactive: 1.19
8,ELANLYHHVWM [BICD2_Y538_C542W],inactive: 1.56
9,RKLVDYDSAQH [BIN1_Y150_R154Q],inactive: 0.55
10,GHLFACDWISI [BEST1_Y227_Y227C_YF],inactive: 1.72
11,GIVEEYQLPYY [BMPR1A_Y453],inactive: 0.955
12,WVYNHYRCIIW [BRCA2_Y2624_W2626C],inactive: 2.36
13,SRIWVYNHYRC [BRCA2_Y2621_W2626C],inactive: 1.73
14,WVYNHYRWIIW [BRCA2_Y2624],inactive: 2.52
15,KKFFSYAWPFF [BRDT_Y291_H288Y_YF],inactive: 1.68
16,KRFRIYHLATS [BRCA2_Y3009_YF],inactive: 1.03
17,PSDPSYEDMRE [BMPR1A_Y467],inactive: 0.254
18,SARHHYESLQT [BIN1_Y157],inactive: 1.38
19,NEKNIYGVPLM [BMPR2_Y247_R248G],inactive: 0.746

# Molecular target: SHP2 N-SH2 domain L43F
# Assay: as above
# Settings: peptide library: pTyr-Var
row,Binder,enrichment score
1,LDVGEYCVPRG [BEX1_Y43_A40V],inactive: 0.823
2,HKNNNYEPSLF [BRCA2_Y57_N60S],inactive: 1.01
3,GHPYAYDWISI [BEST1_Y227_L224P],inactive: 1.17
4,SRIWVYNHFRW [BRCA2_Y2621_YF],inactive: 2.87
5,GHLYAYDWIRI [BEST1_Y227_S231R],inactive: 2.6
6,RTLIRYAKLGN [BEST1_Y131_N133K],inactive: 0.726
7,FQLPFYNMVPS [BMPR1A_Y458_YF],inactive: 1.4
8,ELANLYHHVWM [BICD2_Y538_C542W],inactive: 1.4
9,RKLVDYDSAQH [BIN1_Y150_R154Q],inactive: 0.552
10,GHLFACDWISI [BEST1_Y227_Y227C_YF],inactive: 1.64
11,GIVEEYQLPYY [BMPR1A_Y453],inactive: 0.907
12,WVYNHYRCIIW [BRCA2_Y2624_W2626C],inactive: 2.09
13,SRIWVYNHYRC [BRCA2_Y2621_W2626C],inactive: 1.69
14,WVYNHYRWIIW [BRCA2_Y2624],inactive: 2.23
15,KKFFSYAWPFF [BRDT_Y291_H288Y_YF],inactive: 3.09
16,KRFRIYHLATS [BRCA2_Y3009_YF],inactive: 1.56
17,PSDPSYEDMRE [BMPR1A_Y467],inactive: 0.433
18,SARHHYESLQT [BIN1_Y157],inactive: 1.19
19,NEKNIYGVPLM [BMPR2_Y247_R248G],inactive: 0.878

# Molecular target: SHP2 N-SH2 domain T42A
# Assay: as above
# Settings: peptide library: pTyr-Var
row,Binder,enrichment score
1,LDVGEYCVPRG [BEX1_Y43_A40V],inactive: 0.569
2,HKNNNYEPSLF [BRCA2_Y57_N60S],inactive: 0.535
3,GHPYAYDWISI [BEST1_Y227_L224P],inactive: 1.89
4,SRIWVYNHFRW [BRCA2_Y2621_YF],active: 5.23
5,GHLYAYDWIRI [BEST1_Y227_S231R],inactive: 2.41
6,RTLIRYAKLGN [BEST1_Y131_N133K],inactive: 1.79
7,FQLPFYNMVPS [BMPR1A_Y458_YF],inactive: 1.41
8,ELANLYHHVWM [BICD2_Y538_C542W],inactive: 1.35
9,RKLVDYDSAQH [BIN1_Y150_R154Q],inactive: 0.465
10,GHLFACDWISI [BEST1_Y227_Y227C_YF],inactive: 1.51
11,GIVEEYQLPYY [BMPR1A_Y453],inactive: 0.823
12,WVYNHYRCIIW [BRCA2_Y2624_W2626C],inactive: 1.8
13,SRIWVYNHYRC [BRCA2_Y2621_W2626C],inactive: 1.52
14,WVYNHYRWIIW [BRCA2_Y2624],inactive: 2.59
15,KKFFSYAWPFF [BRDT_Y291_H288Y_YF],active: 3.29
16,KRFRIYHLATS [BRCA2_Y3009_YF],inactive: 1.24
17,PSDPSYEDMRE [BMPR1A_Y467],inactive: 0.293
18,SARHHYESLQT [BIN1_Y157],inactive: 1.42
19,NEKNIYGVPLM [BMPR2_Y247_R248G],inactive: 0.717

# Molecular target: SHP2 N-SH2 domain T52S
# Assay: as above
# Settings: peptide library: pTyr-Var
row,Binder,enrichment score
1,LDVGEYCVPRG [BEX1_Y43_A40V],inactive: 0.66
2,HKNNNYEPSLF [BRCA2_Y57_N60S],inactive: 0.63
3,GHPYAYDWISI [BEST1_Y227_L224P],inactive: 1.12
4,SRIWVYNHFRW [BRCA2_Y2621_YF],inactive: 2.9
5,GHLYAYDWIRI [BEST1_Y227_S231R],inactive: 2.65
6,RTLIRYAKLGN [BEST1_Y131_N133K],inactive: 0.721
7,FQLPFYNMVPS [BMPR1A_Y458_YF],inactive: 1.61
8,ELANLYHHVWM [BICD2_Y538_C542W],inactive: 1.36
9,RKLVDYDSAQH [BIN1_Y150_R154Q],inactive: 0.551
10,GHLFACDWISI [BEST1_Y227_Y227C_YF],inactive: 1.36
11,GIVEEYQLPYY [BMPR1A_Y453],inactive: 1.01
12,WVYNHYRCIIW [BRCA2_Y2624_W2626C],inactive: 2.05
13,SRIWVYNHYRC [BRCA2_Y2621_W2626C],inactive: 1.67
14,WVYNHYRWIIW [BRCA2_Y2624],inactive: 2.65
15,KKFFSYAWPFF [BRDT_Y291_H288Y_YF],active: 4.12
16,KRFRIYHLATS [BRCA2_Y3009_YF],inactive: 2.36
17,PSDPSYEDMRE [BMPR1A_Y467],inactive: 0.453
18,SARHHYESLQT [BIN1_Y157],inactive: 1.31
19,NEKNIYGVPLM [BMPR2_Y247_R248G],inactive: 1.02

# Molecular target: SHP2 N-SH2 domain wild-type
# Assay: as above
# Settings: peptide library: pTyr-Var
row,Binder,enrichment score
1,LDVGEYCVPRG [BEX1_Y43_A40V],inactive: 0.763
2,HKNNNYEPSLF [BRCA2_Y57_N60S],inactive: 0.631
3,GHPYAYDWISI [BEST1_Y227_L224P],inactive: 1.12
4,SRIWVYNHFRW [BRCA2_Y2621_YF],inactive: 2.77
5,GHLYAYDWIRI [BEST1_Y227_S231R],inactive: 2.49
6,RTLIRYAKLGN [BEST1_Y131_N133K],inactive: 0.824
7,FQLPFYNMVPS [BMPR1A_Y458_YF],inactive: 0.96
8,ELANLYHHVWM [BICD2_Y538_C542W],inactive: 1.48
9,RKLVDYDSAQH [BIN1_Y150_R154Q],inactive: 0.474
10,GHLFACDWISI [BEST1_Y227_Y227C_YF],inactive: 1.59
11,GIVEEYQLPYY [BMPR1A_Y453],inactive: 0.92
12,WVYNHYRCIIW [BRCA2_Y2624_W2626C],inactive: 2.35
13,SRIWVYNHYRC [BRCA2_Y2621_W2626C],inactive: 1.83
14,WVYNHYRWIIW [BRCA2_Y2624],inactive: 2.75
15,KKFFSYAWPFF [BRDT_Y291_H288Y_YF],inactive: 1.75
16,KRFRIYHLATS [BRCA2_Y3009_YF],inactive: 1.04
17,PSDPSYEDMRE [BMPR1A_Y467],inactive: 0.315
18,SARHHYESLQT [BIN1_Y157],inactive: 1.21
19,NEKNIYGVPLM [BMPR2_Y247_R248G],inactive: 0.92

# Source: the supplement of paper PMC10369915
